Results published in PubChem BioAssay AID1745853 (National Center for Advancing Translational Sciences (NCATS), 2022).
The list shows a part of the results. The main result of the screen is listed elsewhere. These columns were measured beside it and carry no call.

Key:
Assay in all cases: Primary Screen for Target Class Profiling of Small Molecule Inhibitors of Methyltransferases
[1] = molecular target: Glycine N-methyltransferase (Homo sapiens) (UniProt Q14749); conditions: purified enzyme, MTase-Glo SAH luminescence; measured here: GNMT inhibition; at 40 µM; stronger effect = lower value
Method in brief: (§1)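 Each enzyme was reacted with SAM and its substrate, with compounds tested once at 40 uM; SAH formed was read by MTase-Glo luminescence.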

[2] = molecular target: Guanidinoacetate N-methyltransferase (Homo sapiens) (UniProt Q14353); conditions: purified enzyme, MTase-Glo SAH luminescence; measured here: GAMT inhibition; at 40 µM; stronger effect = lower value
Method in brief: as §1

[3] = molecular target: Histamine N-methyltransferase (Homo sapiens) (UniProt P50135); conditions: purified enzyme, MTase-Glo SAH luminescence; measured here: HNMT inhibition; at 40 µM; stronger effect = lower value
Method in brief: as §1

[4] = molecular target: Nicotinamide N-methyltransferase (Homo sapiens) (UniProt P40261); conditions: purified enzyme, MTase-Glo SAH luminescence; measured here: NNMT inhibition; at 40 µM; stronger effect = lower value
Method in brief: as §1

[5] = molecular target: Phenylethanolamine N-methyltransferase (Homo sapiens) (UniProt P11086); conditions: purified enzyme, MTase-Glo SAH luminescence; measured here: PNMT inhibition; at 40 µM; stronger effect = lower value
Method in brief: as §1
% is scaled to controls: 0 for no effect and ±100 for the full control effect.

Row | Compound | activity change, negative = inhibition [1] [%] | activity change, negative = inhibition [2] [%] | activity change, negative = inhibition [3] [%] | activity change, negative = inhibition [4] [%] | activity change, negative = inhibition [5] [%]
1 | CN1C(=O)c2cc(C(=O)NCCN3CCCC3)nn2CC1(C)C(=O)NC1CCCCC1 (stereo unspecified) | 3.09 | 8.51 | 0.537 | 6.02 | 0.369
2 | CCNC(=O)N[C@H]1[C@H](O)[C@@H](N2CCN(c3ccccc3OC)CC2)[C@@H]2OC[C@H]1O2 | -1.59 | -5.1 | -0.313 | -5.9 | -3.09
3 | C[C@H](NCc1ccc(OCc2cccc(F)c2)cc1)C(N)=O |  | 1.48 |  | -14.5 | 2.91
4 | CN1CCC2(C1)CN(Cc1ccccc1)c1ccc(C(=O)N3CCOCC3)cc12 (stereo unspecified) | -4.54 | -2.45 | -3.83 | -12.8 | -21.2
5 | CC1(C(=O)NCc2ccccc2)Cn2c(ccc2-c2ccco2)C(=O)N1c1ccc(F)cc1 (stereo unspecified) | -9.26 | 4.52 | 2.49 | -0.88 | -0.816
6 | CC(C)CCn1c(=O)c2ccccc2n2c(=O)n(CC(=O)Nc3ccc4c(c3)OCO4)nc12 | 3.4 | 4.87 | 2.68 | -1.3 | 3.96
7 | CC1CCN(Cc2nnnn2CCCC(=O)N2CCN(CCO)CC2)CC1 | -0.987 | 0.024 | 0.839 | 2.5 | 7.88
8 | CN(Cc1ccccc1)C(=O)[C@H]1C[C@@H](O)[C@H](O)[C@@H]2N=C(Nc3ccc(-n4cccn4)cc3)S[C@@H]21 | -11.2 | -4.81 | -5.68 | -12.3 | -3.14
9 | O=C(c1ccncc1)N1CCCC(CN2CCCC2)CC1 (stereo unspecified) | -7.09 | -7.79 | -18.6 | -9.14 | -3.19
10 | CC1(C(=O)NC2CCCCCC2)Cn2c(cc3occc32)C(=O)N1CCCc1ccccc1 (stereo unspecified) | 1.85 | 0 | 10.1 | 0.145 | 1.86
11 | CCc1ccc(CNC(=O)C(CC)n2ccc3cc(S(=O)(=O)N4CCCCC4)ccc32)cc1 (stereo unspecified) | 4.47 | 6.11 | 0.98 | -6.78 | 0.606
12 | C=CCNC(=O)N[C@H]1CCN(C(=O)CC(C)(C)C)[C@@H]1C(=O)N[C@@H](Cc1cccs1)C(N)=O | -6.11 | -12.1 | -4.64 | -7.23 | -10.2
13 | COc1ccccc1-c1nnc2n(Cc3ccc(C)cc3)c(=O)c3ccccc3n12 | -13.6 | -3.15 | -9.77 | -12 | -10.4
14 | CCCCCCCCC(=O)N[C@H](CN1CCCC1)[C@H](O)c1ccc2c(c1)OCCO2 | -6.39 | -4.95 | 0.323 | -20.1 | -1.4
15 | C=C1C(OC2OC(CO)C(O)C(O)C2O)CC2C(C)(C)C(O)CCC2(C)C1CC/C(C)=C\COC(=O)CC(=O)O (stereo unspecified) | -5.08 | 3.1 | 5.2 | -8.23 | 7.31
16 | CCOc1ccc(N2C(=O)c3cc(C(=O)OC)nn3CC2(C)C(=O)NC2CCCCCC2)cc1 (stereo unspecified) | -3.71 | 3.67 | 0.365 | -4.55 | -6.47
17 | COc1cccc(CN2CC(C(=O)NCc3n[nH]c(=O)[nH]3)CCC2=O)c1 (stereo unspecified) | -1.31 | 2.73 | 1.16 | -3.27 | 11.9
18 | CCc1nc(NC(=O)Cn2nc3c(cc2=O)CCCC3)sc1C | -12.4 | -5.1 | -4.75 | -14.8 | -7.46
19 | CN1CCN(C(c2ccc(F)cc2)c2sc3nc(-c4ccco4)nn3c2O)CC1 (stereo unspecified) |  | -2.03 |  | -6.39 | 5.59
20 | COC(=O)C1=C(C)NC(COC(N)=O)=C(C(=O)OC(C)C)C1c1cccc(Cl)c1Cl (stereo unspecified) | -3.05 | -2.98 | 7.78 | -26.5 | -2.33

Row | Compound | activity change, negative = inhibition [1] [%] | activity change, negative = inhibition [2] [%] | activity change, negative = inhibition [3] [%] | activity change, negative = inhibition [4] [%] | activity change, negative = inhibition [5] [%]
21 | O=C(OCC1=C[C@@H](O)[C@@H]2C=CO[C@@H](O[C@@H]3O[C@H](CO)[C@@H](O)[C@H](O)[C@H]3O)[C@H]12)c1ccc(O)cc1 | -5.05 | -7.58 | 5.7 | -17.1 | 0.391
22 | CC(=O)NCCCCn1c2c(c3ccccc31)C(=O)NCC2 | 1.26 | -15.8 | 11.2 | -15.9 | -53.5
23 | C=C(C(=O)OC)C1C(O)CC2(C)C(=O)CCC(O)(CO)C2C1O (stereo unspecified) | -1.8 | 1.69 | 7.18 | -5.2 | -6.77
24 | CC(=O)NC1(C)CCN(Cc2cnc(-c3cccc(F)c3)s2)CC1 | -11.3 | -12.9 | -5.85 | -23.7 | -22.8
25 | O=C(Cc1ccccc1)NCc1nnc2n1C(C(=O)O)CC2 (stereo unspecified) | -7.52 | -9.39 | -3.34 | -6.27 | -8.34
26 | COc1cc([C@H]2OC[C@]3(OC(C)=O)[C@@H](c4ccc(O[C@@H]5O[C@H](CO)[C@@H](O)[C@H](O)[C@H]5O)c(OC)c4)OC[C@H]23)ccc1O | 0 | 6.68 | 8.76 | -5.14 | 3.75
27 | CCC(C)NC(=O)c1ccc2c(=O)n(CCC(C)C)c3nn(Cc4ccc(C)cc4)c(=O)n3c2c1 (stereo unspecified) | 4.54 | 0 | 6.47 | -1.23 | 4.77
28 | Cc1nc(N(C)C)ncc1C(=O)N1CCN(c2ccccc2C#N)CC1 | -5.52 | -8.43 | -3.21 | -15.4 | -26.5
29 | CC1(C)CCC=[N+]1[O-] | 4.71 | 13.5 | 8.86 | -2.28 | 5.88
30 | Cc1ccc(C)c(Cn2nc3n(Cc4ccc(F)cc4)c(=O)c4ccccc4n3c2=O)c1 | 5.56 | 1.25 | 8.82 | 7.71 | 3.68
31 | CCCN1C(=O)c2cc3oc(C)cc3n2CC1(C)C(=O)NC1CCCCCC1 (stereo unspecified) | -6.83 | 4.7 | -1.92 | -6.22 | -4.23
32 | CC(C)CCNC(=O)C1(C)Cn2nc(C(=O)NCCc3ccccc3)cc2C(=O)N1C (stereo unspecified) | -1.89 | 1.47 | 5.49 | 2.37 | 0.315
33 | CCCN1C(=O)c2nc3ccccc3n2CC1(C)C(=O)NC1CCCC(C)C1C (stereo unspecified) | 8.73 | 1.93 | 8.74 | 0.036 | 4.31
34 | Cc1cc(CN(C)c2ccc(-c3nc(-c4ccccc4F)no3)cn2)on1 | -8.5 | -11.4 | -5.02 | -13.8 | -13.4
35 | CC1(C)CCCC2(C)C(C(=O)O)=CCC12 (stereo unspecified) | -3.93 | -8.82 | 1.87 | -21.1 | 0.475
36 | COc1cc(NC(=O)N2CCn3cccc3C2C)cc(OC)c1 (stereo unspecified) | 0.871 | 0 | 5.65 | 1.78 | 8.05
37 | COc1ccc(CN2C(=O)COC[C@H]2C(=O)Nc2cc(F)cc(F)c2)cc1OC | -8.23 | 0.308 | 3.54 | -5 | 1.08
38 | COc1ccc(OC2CCN(C(C)=O)CC2)c(C(=O)N2C[C@@H]3CCC[C@H]2C3)c1 | -4.96 | -10.2 | -3.33 | -9.29 | -0.878
39 | CC(C)CCn1c(=O)c2ccccc2n2c(SCC(=O)Nc3ccc(F)cc3F)nnc12 | -0.386 | 4.21 | -1.28 | -19.9 | 1.03
